Measured values from PubChem BioAssay AID1645882 (National Center for Advancing Translational Sciences (NCATS), 2021).
In all, about 16,000 compounds went through this assay and about 120 (0.75%) were called active. Not shown: some 4% with an inconclusive outcome. Calls follow the shape of the dose curve; as a rule, active = well fitted inhibition curve with a large enough effect; inconclusive = small, poorly fitted or top-dose-only effect; inactive = no such curve, though single readings can be large or run the other way. This is one part of the list.

Target: Rap guanine nucleotide exchange factor 3 (Homo sapiens) (UniProt O95398)
Assay: Validation qHTS for antagonist of cAMP-regulated guanine nucleotide exchange factor 3 (EPAC1); also: nearly all actives have a fitted effect of over 75% in size
Details: EPAC1 Rap1B-BODIPY-GDP exchange, fluorescence; series mostly up to 150 µM; activity change, negative = inhibition: at the top concentration
Source text: Assay Provider (PI): Xiaodong Cheng Ph.D.
The University of Texas Medical Branch, […], TX
In multi-cellular eukaryotic organisms, the effects of cAMP are transduced by two ubiquitously-expressed intracellular cAMP receptors, the classic protein kinase A/cAMP-dependent protein kinase (PKA/cAPK) and the more recently discovered exchange protein directly activated by cAMP/cAMP-regulated guanine nucleotide exchange factor (EPAC/cAMP-GEF). Both PKA and EPAC are ubiquitously expressed in all tissues, and an increase in intracellular cAMP levels will lead to the activation of both PKA and EPAC. Therefore, careful dissections of the individual role and relative contribution of EPAC and PKA within the overall cAMP signaling in various model systems are critical for further elucidating the mechanism of cAMP signaling. To date no EPAC-specific antagonists and agonist, as well as isoform-specific agonists have been reported, and developing EPAC-specific pharmacological probes to determine the physiological functions that EPAC play in the overall cAMP-mediated signaling remains a major challenge within the research field. Furthermore, identified regulators of EPAC may lead to new mechanism-based therapeutic strategies specifically targeting the EPAC / cAMP-signaling components as EPAC has been implicated to play important roles in major human pathological conditions such as diabetes, heart disease, and cancer.
This qHTS will be used to screen the Molecular Libraries Small Molecule Repository (MLSMR) as a concentration-titration series using the NCGC unique quantitative screening (qHTS) platform to find activators for EPAC1. In addition, this assay will also be used as a counterscreen for the EPAC2 qHTS. This fluorescent based assay is developed and validated for EPAC1 that measures exchange using EPAC effector Rap1 complex with BODIPY-GDP, a GDP analog with a tethered fluorophores. Activators are identified by monitoring the change in fluorescence signal as the exchanged free BODIPY-GDP has a reduced fluorescence compared to Rap1-bound BODIPY-GDP. Increase in signal (activation) is the desired outcome for the EPAC1 agonist while no activity in this assay is desired for the EPAC2 agonist counterscreen.
[1] de Rooij, J., Zwartkruis, F. J., Verheijen, M. H., Cool, R. H., Nijman, S. M., Wittinghofer, A., and Bos, J.L. (1998) Nature 396, 474-477.
Briefly, three uL of reagents (100 nM EPAC1, 250 nM RAP1B-BODIPY-GDP, 50 uM GDP) were dispensed into a 1536-well Greiner black solid-bottom medium binding assay plate. Controls and test compounds (23 nL) were transferred to the plate via a Kalypsys pin tool equipped with a 1536-pin array. The plates were centrifuged at 1,000 rpm for 15 seconds followed by 5 minute incubation at room temperature. The assay plates were read at 5 minute intervals for 30 minutes in the ViewLux plate reader using 480nm excitation and 540nm emission filters. The results were normalized to the […] positive control ATA and DMSO.

UniProt O95398, sequence (O95398 whole entry, looked up): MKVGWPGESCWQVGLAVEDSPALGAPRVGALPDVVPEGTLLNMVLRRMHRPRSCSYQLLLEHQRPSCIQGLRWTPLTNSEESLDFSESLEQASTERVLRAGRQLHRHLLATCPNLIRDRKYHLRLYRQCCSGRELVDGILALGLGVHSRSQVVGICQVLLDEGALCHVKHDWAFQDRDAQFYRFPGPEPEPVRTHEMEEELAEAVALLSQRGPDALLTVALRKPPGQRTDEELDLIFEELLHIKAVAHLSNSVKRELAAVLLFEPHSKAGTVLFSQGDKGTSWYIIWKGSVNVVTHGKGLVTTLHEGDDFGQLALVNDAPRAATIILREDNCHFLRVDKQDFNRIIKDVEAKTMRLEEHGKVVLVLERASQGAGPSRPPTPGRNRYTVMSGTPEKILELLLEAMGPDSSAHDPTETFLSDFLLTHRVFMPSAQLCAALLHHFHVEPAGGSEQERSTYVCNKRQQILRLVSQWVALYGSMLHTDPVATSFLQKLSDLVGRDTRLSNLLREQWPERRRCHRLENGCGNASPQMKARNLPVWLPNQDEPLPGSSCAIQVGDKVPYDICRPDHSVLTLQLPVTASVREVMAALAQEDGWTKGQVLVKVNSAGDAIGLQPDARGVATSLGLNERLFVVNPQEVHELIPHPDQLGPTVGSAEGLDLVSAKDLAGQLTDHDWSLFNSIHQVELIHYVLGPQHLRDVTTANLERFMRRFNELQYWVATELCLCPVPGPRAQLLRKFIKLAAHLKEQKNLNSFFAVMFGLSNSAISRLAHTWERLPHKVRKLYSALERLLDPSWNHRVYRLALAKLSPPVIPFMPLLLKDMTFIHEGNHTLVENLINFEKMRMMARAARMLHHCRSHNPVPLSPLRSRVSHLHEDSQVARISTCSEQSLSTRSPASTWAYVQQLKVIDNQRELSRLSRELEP

| SMILES | activity change, negative = inhibition |
| --- | --- |
| C[C@]12CC3CC(N)(C1)C[C@@](C)(C3)C2 | inactive: 1.41% |
| C[C@@H]1CN(Cc2ccc3c(c2)CN(Cc2ccc(Oc4ncccn4)cc2)CCO3)C[C@H](C)O1 | inactive: 9.82% |
| COC1=CC(=O)CC(C)C12Oc1c(Cl)c(OC)cc(OC)c1C2=O (stereo unspecified) | inactive: -8.02% |
| COc1ccc(C(=O)C[n+]2cccc3cccc(O)c32)cc1 | inactive: -14.8% |
| Cc1ccccc1C1(CC(=O)N2CC3(C)CC2CC(C)(C)C3)CC(=O)N(Cc2cccnc2)C1=O (stereo unspecified) | inactive: -2.13% |
| OC[C@H]1O[C@@H](OC[C@H]2O[C@@H](O)[C@H](O)[C@@H](O)[C@@H]2O)[C@H](O)[C@@H](O)[C@@H]1O | inactive: 11.8% |
| Cc1cccc(CNc2ccnc(-c3ccc(N(C)C)cc3)n2)c1 | inactive: -6.99% |
| CN(C)c1ncc2nc(-c3cccc(C#N)c3)c(=O)n(CCC#N)c2n1 | inactive: 9.45% |
| CCOC(=O)C[C@H]1c2ccccc2S(=O)(=O)N1c1ccccc1 | inactive: 7.26% |
| CCNc1ncc2nc(-c3cn(C)c4ccccc34)c(=O)n(-c3ccccc3)c2n1 | inactive: 15.6% |
| COc1cc(CN2CCCC(n3cc(C(=O)N4CCCCC4)nn3)C2)cc(OC)c1OC (stereo unspecified) | inactive: 16.3% |
| C=CC(C1=CC(=O)C(OC)=C(OC)C1=O)c1ccccc1 (stereo unspecified) | inactive: 4.74% |
| c1ccc2c(CCC3CCNCC3)c[nH]c2c1 | inactive: -3.21% |
| CCCS(=O)(=O)NCc1c(C)ncc2c1CCN(C(=O)c1ccc3[nH]c4c(c3c1)CCCC4)C2 | inactive: 3.8% |
| CCCCCCCCCCCCCCC[C@@H](O)[C@@H](N)CO | inactive |
| C[n+]1cccc(C(=O)[O-])c1 | inactive: 10.2% |
| COc1cc(C)c(/C=C/C(C)=C/C=C/C(C)=C/C(=O)O)c(C)c1C | inactive |
| CCOC(=O)C[C@H]1c2ccc(C(F)(F)F)cc2S(=O)(=O)N1C(C)(C)C | inactive: 16.8% |
| CCCCCCCCCCCCCCCCCC(=O)OCC(O)CO (stereo unspecified) | inactive: -138% |
| COC(=O)c1cc(CNC(=O)c2cccc(N(C)C)c2)cc(NC(=O)c2ccccc2Cl)c1 | inactive: -7.78% |
| O=c1[nH]c(=O)n([C@H]2C[C@H](O)[C@@H](CO)O2)cc1F | inactive |
| COc1ccccc1CN1CC[C@@]2(CCCN(C(=O)c3cccc(F)c3)C2)C1 | inactive: 7.38% |

| SMILES | activity change, negative = inhibition |
| --- | --- |
| CCCCCCOC(=O)c1cccnc1 | inactive: 12.2% |
| Fc1ccc(Nc2ccnc(-c3ccoc3)n2)cc1 | inactive: 9.27% |
| O=c1c(-c2ccc(F)cc2)nc2cnc(Oc3cccc(Cl)c3)nc2n1C1CC1 | inactive: 20.4% |
| CCNc1ncc2nc(-c3ccc(Cl)cc3)c(=O)n(C)c2n1 | inactive: 2.22% |
| CC(C)CC(NC(=O)OCC1c2ccccc2-c2ccccc21)C(=O)O (stereo unspecified) | inactive: 0.979% |
| Cc1ccccc1C1(CC(=O)N2CCCCC2C)CC(=O)N(Cc2cccnc2)C1=O (stereo unspecified) | inactive: 12.8% |
| O=C(Oc1ccccc1)N1CCC2(CCCN(c3ccncc3)C2)CC1 | inactive: 13.9% |
| COc1cc(CN2CCCC(n3cc(C(=O)N4CCCC4)nn3)C2)cc(OC)c1 (stereo unspecified) | inactive: 10.1% |
| Cc1ccc(-c2ccnc(-n3ncc(C(=O)N(C)Cc4cccc5ncccc45)c3C3CC3)n2)o1 | inactive: 17.5% |
| Cc1noc(C)c1CCC(=O)N1CCOc2ccc(CN3CCN(c4ccccn4)CC3)cc2C1 | inactive: 11% |
| Clc1ccc[n+](CCCCC[n+]2cccc(Cl)c2)c1 | inactive: -27.8% |
| NS(=O)(=O)c1cc2c(cc1Cl)NCNS2(=O)=O | inactive |
| CC1=C(/C=C/C(C)=C/C=C/C(C)=C/C=C/C=C(C)/C=C/C=C(C)/C=C/C(=O)[C@]2(C)CC(O)CC2(C)C)C(C)(C)CC(O)C1 (stereo partly specified) | inactive: -3.62% |
| COc1cc(/C=C/C(=O)O)ccc1O | inactive: 1.31% |
| CS(=O)(=O)N1CCC2(CCCN(C(=O)Nc3cccc(C#N)c3)C2)CC1 | inactive: 23.7% |
| Cc1cnc(SCc2ccccn2)nc1C1CCCN(C(=O)c2ccc3c(c2)OCCO3)C1 (stereo unspecified) | inactive: 9.8% |
| C[N+]1(C)CCC(=C(c2ccccc2)c2ccccc2)CC1 | inactive |
| COc1ccc(-c2noc(CC(=O)O)c2-c2ccc(OC)cc2)cc1 | inactive: 11.1% |
| CN(C)CCc1c[nH]c2ccc(C[C@H]3COC(=O)N3)cc12 | inactive: 19.5% |
| COc1cc2c(cc1OC)C(C(=O)c1ccc(OC)c(OC)c1O)=NCC2 | inactive: 7.39% |
| CN(C)CCC=C1c2ccccc2C=Cc2ccccc21 | inactive |
| NC(N)=N/N=C/c1c(Cl)cccc1Cl | inactive |

| SMILES | activity change, negative = inhibition |
| --- | --- |
| C#C[C@]1(O)CC[C@H]2[C@@H]3CCC4=CC(=O)CC[C@@H]4[C@H]3CC[C@@]21C | inactive: 15.3% |
| CC(=O)N[C@@H]1C(O[C@H]2O[C@H](C(=O)O)C(O)[C@H](O)[C@H]2O)[C@H](O)[C@@H](CO)O[C@H]1O[C@@H]1C(C(=O)O)O[C@@H](O[C@H]2[C@H](O)[C@@H](CO)OC(O)[C@@H]2NC(C)=O)[C@H](O)[C@H]1O (stereo partly specified) | inactive: 3.27% |
| CC(=O)c1ccc(C(=O)N2CCCC(c3nc(SCc4ccccn4)ncc3C)C2)cc1 (stereo unspecified) | inactive: 6.15% |
| Cc1ccc(CN2CCOc3ccc(CN4CCN(CCO)CC4)cc3C2)s1 | inactive: 9.22% |
| Nc1[nH]nc2nc3ccccc3nc12 | inactive: 8.15% |
| O=C(CSc1ncccn1)NCC1Cc2cccc(-c3ncccn3)c2O1 (stereo unspecified) | inactive: -0.704% |
| O=C(O)CNC(=O)c1ccccc1 | inactive: 4.18% |
| O=C(c1csnn1)N1CCC2(CC1)CN(c1ccncc1)C2 | inactive: 16.1% |
| COc1cc2c(CCNC(C)=O)c[nH]c2cc1O | inactive: -5.1% [at 75.8 µM] |
| O=C(c1cnccn1)N1CCC2(CC1)CN(Cc1ccccc1)C2 | inactive: 12.9% |
| N#Cc1ccc(CN2CC3(CCN(C(=O)c4cnccn4)CC3)C2)cc1 | inactive: 2.07% |
| O=C1CC[C@@H](C(=O)O)N1 | inactive: 21.4% |
| O=C1CCN(CCc2ccccc2)CCN1CCSc1ccccc1 | inactive: 3.9% |
| COc1ccccc1CNc1cc(-c2ccc(C(=O)N(C)C)cc2)ncn1 | inactive: 4.64% |
| COc1ccc(-c2coc3ccc(OC4OC(COC(C)=O)C(OC(C)=O)C(OC(C)=O)C4OC(C)=O)cc3c2=O)cc1 (stereo unspecified) | inactive: 10.7% |
| CO[C@@]1(NC(=O)C(C(=O)O)c2ccc(O)cc2)C(=O)N2C(C(=O)O)=C(CSc3nnnn3C)CO[C@@H]21 (stereo partly specified) | inactive: 15.4% [at 75.8 µM] |
| C=CCc1cc(OC)c(O)c(C(=O)NCCO)c1 | inactive: -1.39% |
| Cc1ccccc1-c1cccc(CN2CCc3nnc(C(NS(C)(=O)=O)C(C)C)n3CC2)c1 (stereo unspecified) | inactive: 8.77% |
| O=c1c(O)c(-c2ccccc2)oc2ccccc12 | inactive: -2.26% |
| CN1CCN(c2ncc3ncc(=O)n(CCC#N)c3n2)CC1 | inactive: 17.2% |
| CN(CCc1ccc(Cl)c(Cl)c1)CC(O)COc1ccc(NS(C)(=O)=O)cc1 (stereo unspecified) | inactive: 20.6% |
| CSc1ccc(-c2ccc3c(c2)CC(CNC(=O)Cn2nc(C)nc2C)O3)cc1 (stereo unspecified) | inactive: 11.7% |
